Laboratory results published in PMC6919601, “Identification of Plasmodium dipeptidyl aminopeptidase allosteric inhibitors by high throughput screening” (PLoS ONE, 2019).
About 230 (0.21%) of roughly 110,000 compounds showed an effect of 50% or more. The list shows a part of the results.

What follows are compounds tested against DPAP1 (Plasmodium falciparum, UniProt Q8IIJ9) (assay: primary screen, percent inhibition; read by cleavage of a fluorogenic dipeptide substrate; higher = more effect of the substance).
Sequence of DPAP1 (Q8IIJ9 whole entry, looked up): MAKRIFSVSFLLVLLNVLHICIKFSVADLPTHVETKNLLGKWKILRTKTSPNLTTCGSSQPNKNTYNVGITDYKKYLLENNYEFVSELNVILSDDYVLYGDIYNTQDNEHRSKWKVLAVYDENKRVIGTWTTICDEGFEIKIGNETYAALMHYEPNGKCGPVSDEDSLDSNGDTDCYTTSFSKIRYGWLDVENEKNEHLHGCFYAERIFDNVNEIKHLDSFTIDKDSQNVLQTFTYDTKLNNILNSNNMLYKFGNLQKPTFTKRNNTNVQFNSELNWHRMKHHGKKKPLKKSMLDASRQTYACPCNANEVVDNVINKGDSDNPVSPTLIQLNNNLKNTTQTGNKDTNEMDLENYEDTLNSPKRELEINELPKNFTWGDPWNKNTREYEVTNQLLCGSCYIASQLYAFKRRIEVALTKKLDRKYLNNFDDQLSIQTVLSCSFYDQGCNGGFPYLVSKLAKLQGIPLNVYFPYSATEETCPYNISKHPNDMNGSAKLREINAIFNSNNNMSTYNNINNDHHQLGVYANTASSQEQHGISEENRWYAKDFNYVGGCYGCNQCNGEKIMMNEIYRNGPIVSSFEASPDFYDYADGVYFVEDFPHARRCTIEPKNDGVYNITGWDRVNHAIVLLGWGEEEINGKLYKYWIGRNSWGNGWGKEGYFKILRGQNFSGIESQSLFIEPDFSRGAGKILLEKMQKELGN
Set-up: species or system P. falciparum D10 trophozoite lysates; single well
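Further: 30 min substrate incubation versus DMSO and 10 µM JCP410 controls.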

Compared with `CCN(CCN(C)C)Cc1ccc2c(c1)c1ccccc1n2CC`, `CCn1c2ccccc2c2cc(CNc3cc(-c4ccccc4)ccc3OC)ccc21` is lower in “% Inhibition @ 10 uM” value: 3.35% for the first, -2.34% for the second.

Compared with `O=C(COc1ccccc1Cl)N1CCN(C(=O)c2ccco2)CC1`, `Cc1cccc(N2CCN(C(=O)c3c(-c4ccccc4)noc3C)CC2)c1C` is higher in “% Inhibition @ 10 uM” value: -1.43% for the first, 7.78% for the second.

Going from `Cc1n[nH]c(C)c1CCCCOc1cccc(Cl)c1` to `Cc1c(Cl)cccc1NC(=O)c1cccc(Cl)c1`, the “% Inhibition @ 10 uM” value rises from -4.3% to 5.29%.

First: COc1ccc2nc(NC(=O)CSc3nnc4n(N)cnn34)sc2c1
Second: CCC(=O)Nc1ccc2nc(SCC(=O)N3CCN(C)CC3)sc2c1
The “% Inhibition @ 10 uM” value of the first is higher: -0.597% for the first, -0.994% for the second.

Compared with `COc1ccc(CN2CCN(Cc3cccc(C)c3)CC2)cc1OC`, `COc1ccc(CC(=O)N2CCOCC2)cc1OC` is higher in “% Inhibition @ 10 uM” value: -4.33% for the first, -0.82% for the second.

First: Cc1nn(C(=O)COc2ccc(F)cc2)c(C)c1Sc1ccccc1
Second: COCCNC(=O)c1cc(-c2ccc(F)cc2)nc2ccccc12
The “% Inhibition @ 10 uM” value of the first is higher: 3.72% for the first, 0.718% for the second.

First: Cc1ccc(S(=O)(=O)N(CC(=O)N2CCCCCC2)C2CCCCC2)cc1
Second: O=C(CN(C1CCCCC1)S(=O)(=O)c1ccccc1)N1CCN(c2ccccc2F)CC1
The “% Inhibition @ 10 uM” value of the first is lower: -0.553% for the first, 2.76% for the second.

Going from `O=C(NCCCNC1CCCCC1)c1cc2ccccc2[nH]1` to `N#CCNC(=O)[C@H](CC1CCCCC1)NC(=O)c1ccc(N)cc1`, the “% Inhibition @ 10 uM” value falls from 1.74% to -1.83%.

Going from `COc1cccc(OC)c1C(=O)N(C)c1ccccc1` to `COc1ccccc1OCC(=O)Nc1cccc(C#N)c1`, the “% Inhibition @ 10 uM” value falls from -0.833% to -4.66%.

Going from `CCN(CC)C(=O)C1=C(C)Nc2nc3ccccc3n2C1c1cc(Br)ccc1OC` (stereo not drawn) to `COc1ccccc1C(=O)N/C(=C\c1ccc(Br)cc1)c1nc2ccccc2[nH]1`, the “% Inhibition @ 10 uM” value rises from 1.02% to 9.01%.

Compared with `CCOc1ccc(CC(=O)Nc2cc(C)cc(C)c2)cc1OCC`, `CCOc1cc(-c2cc(C(=O)O)c3c(-c4ccc(Br)cc4)[nH]nc3n2)ccc1O` is lower in “% Inhibition @ 10 uM” value: 1.83% for the first, -2.07% for the second.

Compared with `COc1cc(Br)c(CCNC(=O)OC(C)(C)C)cc1OC`, `Cc1nccc2nc(O)c(C(=O)NCCN(CC(C)C)CC(C)C)cc12` is higher in “% Inhibition @ 10 uM” value: -0.132% for the first, 0.718% for the second.

Going from `O=C(NCC1(c2ccccc2)CCCC1)c1ccccc1` to `Cn1cc(C(=O)NCC2(c3ccccc3)CCCC2)c2c3ccccc3n(C)c2c1=O`, the “% Inhibition @ 10 uM” value falls from 4.61% to -1.36%.

Compared with `Cc1nc2c(-c3ccccc3)c(C)nn2c(C)c1CC(=O)N1CCc2ccccc2C1`, `Cn1c(=O)n(Cc2ccccc2Cl)c(=O)c2c1nc1n2CCN1Cc1ccccc1` is higher in “% Inhibition @ 10 uM” value: 0.953% for the first, 1.97% for the second.

First: CC(CNC(=O)C12CC3CC(CC(C3)C1)C2)OC(=O)c1cccs1 (stereo not drawn)
Second: CCCNC(=O)C12CC3CCC(CC(C3)C1)C2
The “% Inhibition @ 10 uM” value of the first is lower: -5.96% for the first, 7.96% for the second.

Going from `COc1ccc(OC)c(-n2nnc(-c3nc(-c4ccncc4)no3)c2N)c1` to `COc1ccc(Cl)cc1-c1nc(/C=N/c2ccccn2)c(O)o1`, the “% Inhibition @ 10 uM” value falls from 5.47% to -0.945%.

Going from `Cc1ccc(/C=N/n2c(C)nnc2C)cc1` to `Cc1cc2nc3s/c(=C\c4ccc(N(C)C)cc4)c(=O)n3c2cc1C`, the “% Inhibition @ 10 uM” value falls from 3.06% to -3.38%.

Going from `O=C(COc1ccc(S(=O)(=O)N2CCCC2)cc1)NCCC1=CCCCC1` to `O=C(CCCC(=O)NCCC1=CCCCC1)NCCC1=CCCCC1`, the “% Inhibition @ 10 uM” value rises from -9.2% to -5.28%.

First: CC1(C)CC2=Nc3ccccc3NC(c3cccc(F)c3)C2=C(O)C1 (stereo not drawn)
Second: CC1=C(C(=O)Nc2ccc(Cl)cc2)C(c2cccc(Cl)c2)NC(=O)N1 (stereo not drawn)
The “% Inhibition @ 10 uM” value of the first is lower: -5.38% for the first, -4.6% for the second.

Compared with `O=S(=O)(NC1CC1)c1ccc2[nH]c(O)nc2c1`, `CC1CCN(S(=O)(=O)c2ccc(NC(=O)COc3ccc(Cl)cc3Cl)cc2)CC1` is higher in “% Inhibition @ 10 uM” value: -3.5% for the first, 0.583% for the second.

Compared with `COc1cccc2cc(-c3cn(-c4cccc(C)c4)c(S)n3)c(=O)oc12`, `Cc1ccc2nc(-c3ccc(C)s3)cc(C(=O)O)c2c1` is lower in “% Inhibition @ 10 uM” value: 20.1% for the first, 2.42% for the second.

Going from `COc1ccc(CNC2CCN(C)CC2)cc1` to `CC(C)CC(=O)N1CCN(Cc2ccc(C(F)(F)F)cc2)CC1`, the “% Inhibition @ 10 uM” value rises from -2.34% to 8.36%.

Compared with `O=C(Cn1c(SCc2cccc(F)c2)nc2ccncc21)N1CCCCCC1`, `O=C(CCCn1sc2ccccc2c1=O)N1CCCC1` is higher in “% Inhibition @ 10 uM” value: -2.37% for the first, 2.06% for the second.

First: O=C(CSc1ncccc1C(=O)NCc1ccccc1Cl)NCc1ccccc1
Second: O=C(NCCCCc1ccccc1)Nc1ccccc1
The “% Inhibition @ 10 uM” value of the first is higher: -1.99% for the first, -3.56% for the second.

Going from `CC(C)CCNC(=O)C(NC(=O)C1CCC(C)CC1)C(C)C` (stereo not drawn) to `CC(=O)C(C)n1c(CN(C)Cc2ccccc2)nc2c1c(=O)n(C)c(=O)n2C` (stereo not drawn), the “% Inhibition @ 10 uM” value falls from 3.34% to -2.91%.

Going from `O=S(=O)(c1ccc(Cl)cc1)N1CCN(c2ccc(F)cc2)CC1` to `CCOC(=O)c1ccc(CN(CCN2CCOCC2)S(=O)(=O)c2ccc(Cl)cc2)cc1`, the “% Inhibition @ 10 uM” value rises from -1.22% to 1.42%.

Compared with `CC1CC(=O)C2=C(C1)OC(N)=C(C#N)C2c1cccc(F)c1` (stereo not drawn), `CC1CCc2c(sc(NC(=O)c3cccc(F)c3)c2C#N)C1` (stereo not drawn) is lower in “% Inhibition @ 10 uM” value: 3.1% for the first, -0.725% for the second.

Compared with `CCc1ccccc1N(CC(=O)NC)S(=O)(=O)c1ccccc1`, `CCOc1ccc(C2CC(=O)N=C(NC(=O)c3ccccc3)N2)cc1` (stereo not drawn) is lower in “% Inhibition @ 10 uM” value: 5.25% for the first, 0.6% for the second.

Going from `CCOc1ccc(-c2cn3c(n2)sc2cc(C(=O)NCCCN4CCOCC4)ccc23)cc1` to `c1ccc(-c2nc(NCCN3CCOCC3)c3ccccc3n2)cc1`, the “% Inhibition @ 10 uM” value falls from 12.1% to -1.26%.

First: C(CNC1CC2CCC1C2)CN1CCOCC1 (stereo not drawn)
Second: CC(NC(=O)COc1ccc(Br)cc1)C12CC3CC(CC(C3)C1)C2 (stereo not drawn)
The “% Inhibition @ 10 uM” value of the first is lower: -1.82% for the first, 0.161% for the second.

Compared with `Cc1nc2nc(-c3ccc(Cl)cc3Cl)nn2c(C)c1CCC(=O)NCCCN1CCCC1=O`, `Cc1[nH]c(-c2ccc3c(c2)OCO3)nc1C(=O)O` is lower in “% Inhibition @ 10 uM” value: -0.465% for the first, -4.74% for the second.

Going from `CNC(=S)N1CCn2cccc2C1c1ccncc1` (stereo not drawn) to `CCC1(CC)Cc2ccccc2C(=O)N1`, the “% Inhibition @ 10 uM” value rises from -1.12% to 2.65%.

First: CNc1nc2nonc2nc1NC
Second: CCC(C)NS(=O)(=O)c1c[nH]c(C(=O)OC)c1 (stereo not drawn)
The “% Inhibition @ 10 uM” value of the first is higher: 5.39% for the first, -4.07% for the second.
